According to PubChem BioAssay (NCI):
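Method: 48-hour compound exposure of cells in 96-well plates, five concentrations, linear interpolation of endpoints. TGI denotes the concentration required for complete inhibition of growth.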 For part of its entries the source gives two or more results. The list is limited to them. An entry can have further records. For some of these results: Records of one sample usually come from different ranges of test concentrations, not given here; a value can be the end of its range. For some of these results: The values listed for one entry are repeated measurements across runs, samples, wells, individuals or studies. A tag in brackets gives the origin of a value. Letters hold for one entry only.

Tests used:
Assay in all cases: NCI anticancer screen, dose series, 48 h
[1] = system: CAKI-1 renal
[2] = system: SF-295 CNS
[3] = system: RXF 393 renal
[4] = system: SN12C renal
[5] = system: 786-0 renal
[6] = system: HOP-62 NSCLC
[7] = system: EKVX NSCLC
[8] = system: NCI-H460 lung
[9] = system: SNB-19 CNS
[10] = system: KM12 colon
[11] = system: LOX IMVI melanoma
[12] = system: SK-MEL-5 melanoma
[13] = system: HCT-116 colon
[14] = system: A549 NSCLC
[15] = system: M14 melanoma
[16] = system: NCI/ADR-RES ovarian
[17] = system: NCI-H226 lung
[18] = system: BT-549 breast
[19] = system: T-47D breast
[20] = system: OVCAR-4 ovarian
[21] = system: OVCAR-8 ovarian
[22] = system: OVCAR-5 ovarian
[23] = system: SK-OV-3 ovarian
[24] = system: SNB-75 CNS

Oc1c(I)cc(Cl)c2cccnc12
TGI [1]: 77.1 µM [sample A, 1 test] and 7.4 µM [sample B, 1 test] | TGI [2]: 89.4 µM [sample A, 1 test] and 8.79 µM [sample B, 1 test] | TGI [3]: > 100 µM [sample A, 1 test] and 7.49 µM [sample B, 1 test]

CC(=O)Nc1cc(/C=C\C(=O)N2CC(CCl)c3c2cc(N)c2ccccc32)n(C)n1 (stereo not given)
TGI [4]: 3.21 nM and 175 nM | TGI [5]: 4.4 nM and 13.3 µM | TGI [6]: 22.9 nM and 1.19 µM | TGI [7]: 65.6 nM and > 100 µM | TGI [8]: 1.18 µM and > 100 µM | TGI [9]: 350 nM and 12.7 µM | TGI [10]: 77.8 nM and 1.3 µM | TGI [11]: 1.84 µM and > 100 µM | TGI [12]: 9.45 nM and 11.1 µM | TGI [13]: 1.01 µM and > 100 µM | TGI [14]: 127 nM and > 100 µM | TGI [15]: 31.3 nM and 1.06 µM | TGI [2]: 55.8 nM and > 100 µM | TGI [16]: 548 nM and > 100 µM | TGI [17]: 43.9 nM and > 100 µM | TGI [18]: 424 nM and 11.4 µM | TGI [19]: 28.9 nM and > 100 µM | TGI [20]: 69.6 nM and > 100 µM | TGI [21]: 8.71 nM and 15.3 µM | TGI [22]: 70.6 nM and > 100 µM | TGI [23]: 66.2 nM and > 100 µM

CC1CCC2c3c([nH]c4ccccc34)C3C(=O)N(c4ccccc4)C(=O)C3C2C1 (stereo not given)
TGI [24]: 6.43 µM and 164 µM
